# Results taken from PubChem BioAssay AID1346428 (National Center for Advancing Translational Sciences (NCATS), 2018).
# “And” between values parts separate entries of the source, which are not always exact repeats. Equal entries are not always repeated. The campaign covered roughly 48,000 compounds. About 1,200 (2.5%) were called active. Another 2% or so got no clear call; they are omitted.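 How the source made its calls: active means activation of at least 60% and not above a set upper limit (about 1 call in 100 departs from these limits); inconclusive means activation of 40% to 60%, or above that upper limit; inactive means activation under 40%.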 This is one part of the list.
# Target: Probable G-protein coupled receptor 32 (Homo sapiens) (UniProt O75388)
# Test: qHTS for Agonists of Human Resolvin D1 Receptor DRV1; further: 0% is about no effect
# Details: CHO-K1 GPR32 beta-arrestin PathHunter luminescence, 90 min; at 76.9 µM; stronger effect = higher value; zero percent set by DMSO-only wells
# Outline: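 Readings come from a cell-based beta-arrestin complementation format: CHO-K1 GPR32 stable cells (2,500/well) treated 90 min with compounds, then beta-Gal substrate added for 1 h before chemiluminescence imaging.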
# Chain of UniProt O75388 (O75388 whole entry, looked up): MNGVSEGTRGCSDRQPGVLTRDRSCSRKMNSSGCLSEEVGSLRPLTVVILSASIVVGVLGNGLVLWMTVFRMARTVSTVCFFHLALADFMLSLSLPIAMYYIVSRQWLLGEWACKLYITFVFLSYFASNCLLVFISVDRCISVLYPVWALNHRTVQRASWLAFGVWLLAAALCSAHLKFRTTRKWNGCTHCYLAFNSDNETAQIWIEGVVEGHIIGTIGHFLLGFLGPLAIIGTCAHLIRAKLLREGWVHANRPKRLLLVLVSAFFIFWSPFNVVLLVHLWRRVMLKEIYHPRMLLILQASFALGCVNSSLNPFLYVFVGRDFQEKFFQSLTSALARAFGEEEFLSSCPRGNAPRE
row,SMILES,activation
1,CC[C@H](C)C(=O)O[C@H]1CCC=C2C=C[C@H](C)[C@H](CC[C@@H]3C[C@@H](O)CC(=O)O3)[C@H]21,inactive: -18.7%
2,O=C(NCc1ccccc1)c1nc(-c2ccc(Cl)cc2)n2c1CCCCC2,inactive: -17.2%
3,CCc1nonc1NC(=O)c1oc2ccc(Cl)cc2c1C,inactive: -3.31%
4,CCOC(=O)c1c(NC(=O)CSc2cn(CCNC(=O)c3ccc(OCC)cc3)c3ccccc23)sc2c1CCC2,inactive: 14.2%
5,Cc1ccc(Cl)cc1NC(=O)Cn1c(SCC(=O)NCc2ccccc2)nc2ccccc21,inactive: -1.85%
6,Clc1ccc2nc(-c3cccs3)c(Nc3ccc4c(c3)OCCO4)n2c1,inactive: -15.2%
7,CCOC(=O)c1cc(OC(=O)c2cc(OC)cc(OC)c2)n(-c2ccccc2)n1,inactive: 10.9%
8,CC1=C(C(=O)OC2CCCCCC2)C(c2ccc(Cl)cc2Cl)CC(=O)N1 (stereo not drawn),inactive: 7.39%
9,CC1Cc2cc(S(=O)(=O)NCc3ccccc3)ccc2N1C(=O)C1CCC1 (stereo not drawn),inactive: 32%
10,CCOC(=O)c1ccc(NC(=O)CSc2ncc(S(=O)(=O)c3ccc(C)c(Cl)c3)c(=O)[nH]2)cc1,inactive: 35.4%
11,CN(C)c1ccc(NC(=O)Cn2cc(S(=O)(=O)Cc3ccccc3Cl)c3ccccc32)cc1,inactive: -0.775%
12,COc1ccc(CCNC(=O)CCCCn2c(=O)c3ccccc3n(Cc3ccccc3)c2=O)cc1OC,inactive: -22.8%
13,Fc1ccccc1N1CCN(c2ncnc3c2nc2n3CCCC2)CC1,inactive: 36.6%
14,CCOCCc1nn2c(=O)cc(COC(=O)c3ccccc3NC(=O)c3ccc(C)cc3)nc2s1,inactive: -11.9%
15,CCOc1ccc(NC(=O)Cn2cc(C(=O)c3ccc(C)cc3)c(=O)c3cc4c(cc32)OCO4)cc1,inactive: 6.13%
16,CCc1ccc(CN(Cc2ccco2)C(=O)c2cc(-c3ccc(C)c(F)c3)on2)cc1,inactive: -15.3%
17,Nc1cc(C(Cl)=C(Cl)Cl)c(S(N)(=O)=O)cc1S(N)(=O)=O,inactive: 2.54%
18,CCCCN(C)c1nnc(NC(=O)Nc2ccc(Br)c(C)c2)s1,inactive: 0.28%
19,CCn1cc2nc(SCC(=O)Nc3ccc(OC)cc3OC)n(Cc3ccc(Cl)cc3)c(=O)c2n1,inactive: -11.4%
20,Cc1ccc2nc3c(c(Nc4ccc(C)c(C)c4)c2c1)CCC3,active: 101%
21,CCn1c2c(c(=O)n3ncc(C(=O)Nc4ccc(Cl)cc4C)c13)CN(Cc1ccc(OC)cc1)CC2,inactive: 13.9%
22,Brc1cccc(-c2nnn3c2nc(N2CCCCC2)c2ccccc23)c1,inactive: 1.74%
23,CCCn1c(=O)c2sccc2n2c(CCCC(=O)NC3CCCCC3)nnc12,inactive: -6.49%
24,Cc1ccc(F)cc1S(=O)(=O)N1CCC(c2nc3ccccc3s2)CC1,inactive: 4.67%
25,O=C(CNS(=O)(=O)c1cccs1)N1CCN(c2ccccc2F)CC1,inactive: -7.36%
26,COc1ccc(C2C=C(c3ccc(Cl)cc3)Nc3nc(NC(=O)CCC(=O)O)nn32)cc1 (stereo not drawn),inactive: 20.5%
27,Cc1ccccc1Nc1c(-c2c[nH]c3ccccc23)nc2cccc(C)n12,active: 63.1%

row,SMILES,activation
1,Cc1ccccc1Cn1c(C)c(CNCCCc2ccccc2)c(C(=O)O)c1C,inactive: 10.6%
2,COc1ccc(CCN(C)CCCC(C#N)(c2cc(OC)c(OC)c(OC)c2)C(C)C)cc1OC (stereo not drawn),inactive: -10.7% and inactive: -19.7%
3,Cc1ccc(N(Cc2cccs2)C(=O)c2ccccc2[N+](=O)[O-])cc1,inactive: -30.4%
4,Cc1ccc(NC(=O)CCc2nc3cccnc3n2-c2ccccc2)cc1Cl,inactive: -1.42%
5,COc1ccc(-c2csc3nc(-c4ccc(C)cc4)oc(=O)c23)cc1OC,inactive: 14.1%
6,O=c1c2sc3ccccc3c2n(Cc2ccc(Cl)cc2)c(=O)n1Cc1ccco1,inactive: -18.4%
7,O=C(Nc1ccc(F)cc1Cl)c1cnc(N2CCOCC2)c2ccccc12,inactive: -17.3%
8,CCC(C)NC(=O)Cn1c(=O)c2cccn2c2ccc(F)cc21 (stereo not drawn),inactive: -16.4%
9,CCCOc1cccc(C(=O)N2CCCCC2CCN2CCCCC2)c1 (stereo not drawn),inactive: -4.49%
10,Cc1ccc(OCc2cc(=O)n3c(-c4ccccc4)csc3n2)cc1,inactive: 17.8%
11,COc1ccc(C(=O)Nc2nc(-c3nnn(-c4cc(OC)ccc4OC)c3C)ns2)cc1,inactive: -0.943%
12,O=C(Cn1nnc(-c2cccc(C(F)(F)F)c2)n1)NCc1ccc(F)cc1,inactive: 5.68%
13,Cc1c(C(=O)Oc2ccc(Br)cc2)sc2ncn(Cc3ccccc3F)c(=O)c12,inactive: -10.8%
14,Cc1ccc(NC(=O)C(=O)NCC(c2ccc3c(c2)OCO3)N2CCN(C)CC2)cc1C (stereo not drawn),inactive: 8.75%
15,COc1cc(NC(=O)Nc2c[nH]c(=O)[nH]c2=O)cc(OC)c1OC,inactive: -12.4%
16,CC(C)CCNC(=O)Cn1cc(S(=O)(=O)Cc2ccc(F)cc2)c2ccccc21,inactive: -9.33%
17,CCN(CC)S(=O)(=O)c1ccc2c(c1)c(=O)c(C(=O)N1CCN(c3ccccc3OC)CC1)cn2C,inactive: -5.48%
18,O=C(NCCCN1CCN(c2ccccc2F)CC1)c1sc2ncccc2c1-n1cccc1,inactive: -8.25%
19,COc1cccc2cc(-c3nc4ccc(C)cc4[nH]3)c(=O)oc12,inactive: 12.3%
20,CCCCOc1ccc(S(=O)(=O)n2nc(C)c(S(=O)(=O)N3CCCCCC3)c2C)cc1,inactive: -6.78%
21,O=C1CCSC2(C(=O)N(Cc3ccccc3)c3ccccc32)N1c1ccccc1 (stereo not drawn),inactive: -36.9%
22,CCCC(=O)OC1=C(C(C)=O)N(Cc2ccccc2)S(=O)(=O)c2ccccc21,inactive: -6.74%
23,CC(=O)N1c2ccc(S(=O)(=O)NCC3CCC(C(=O)Nc4cccc(C)c4)CC3)cc2CC1C (stereo not drawn),inactive: 0.525%
24,Nc1ncnc2c1c(I)cn2[C@@H]1C[C@H](N)[C@@H](O)[C@H]1O,inactive: 4.02%
25,O=C(CCS(=O)(=O)c1cc2c(cc1Cl)NC(=O)CO2)NCc1ccccc1,inactive: 6.5%
26,CCN(Cc1ccccc1)S(=O)(=O)c1ccc(N2CCCCS2(=O)=O)cc1,inactive: 24%
